The text below walks through data of article PMC4336329 (PLoS ONE, 2015).

In all, about 310,000 compounds went through this assay and about 14,000 (4.5%) showed an effect of 50% or more. Effects have a minus sign here. The list shows a part of the results.
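Further: peak tail current of the secondary pulse compared with the same well before compound.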

Sequence of human ether-à-go-go-related gene (hERG) potassium channel (Q12809 whole entry, looked up): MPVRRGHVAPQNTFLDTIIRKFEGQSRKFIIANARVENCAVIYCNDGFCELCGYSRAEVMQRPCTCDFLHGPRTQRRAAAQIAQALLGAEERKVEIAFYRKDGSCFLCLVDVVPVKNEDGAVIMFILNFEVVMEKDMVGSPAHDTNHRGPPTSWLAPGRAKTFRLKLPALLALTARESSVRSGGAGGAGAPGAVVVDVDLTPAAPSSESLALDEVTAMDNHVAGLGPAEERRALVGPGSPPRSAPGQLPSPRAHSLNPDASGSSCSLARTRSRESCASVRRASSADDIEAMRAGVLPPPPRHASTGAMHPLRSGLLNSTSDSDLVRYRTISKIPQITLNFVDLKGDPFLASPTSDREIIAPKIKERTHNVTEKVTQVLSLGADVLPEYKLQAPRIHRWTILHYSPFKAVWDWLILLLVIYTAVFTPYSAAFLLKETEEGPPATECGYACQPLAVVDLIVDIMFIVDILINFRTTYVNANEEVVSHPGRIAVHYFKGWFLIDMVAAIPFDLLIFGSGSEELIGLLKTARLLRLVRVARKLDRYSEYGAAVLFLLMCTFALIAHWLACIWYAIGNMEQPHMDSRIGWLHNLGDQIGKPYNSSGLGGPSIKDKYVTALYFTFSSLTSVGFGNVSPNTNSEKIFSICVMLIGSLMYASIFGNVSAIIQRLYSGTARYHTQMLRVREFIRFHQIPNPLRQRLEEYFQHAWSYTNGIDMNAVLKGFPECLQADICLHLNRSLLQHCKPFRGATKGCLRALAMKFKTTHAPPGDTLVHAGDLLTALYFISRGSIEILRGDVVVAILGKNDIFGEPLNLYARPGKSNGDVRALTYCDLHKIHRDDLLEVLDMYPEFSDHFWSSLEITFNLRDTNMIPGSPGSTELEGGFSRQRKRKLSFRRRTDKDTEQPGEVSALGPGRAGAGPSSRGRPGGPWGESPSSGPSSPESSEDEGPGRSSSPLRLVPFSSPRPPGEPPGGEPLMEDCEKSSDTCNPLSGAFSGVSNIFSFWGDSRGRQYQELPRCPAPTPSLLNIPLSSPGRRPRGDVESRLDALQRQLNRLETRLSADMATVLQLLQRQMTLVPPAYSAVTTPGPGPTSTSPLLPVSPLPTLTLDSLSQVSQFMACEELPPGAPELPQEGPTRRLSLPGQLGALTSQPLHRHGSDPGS

This assay concerns the target human ether-à-go-go-related gene (hERG) potassium channel (human, UniProt Q12809). The experiment in a line: primary screen, population patch clamp on CHO cells stably expressing hERG.
For `C=CCn1c2ccccc2c2nnc(SCc3[nH]c(=O)[nH]c3C(=O)CCCCC(=O)OCC)nc21`, the “hERG current change (%, negative = inhibition) at 10uM” value was found to be 4.39%.

Regarding `CC1CCCCN1CCNC(=O)c1ccc2c(c1)N(Cc1ccccc1F)C(=O)c1ccccc1S2=O` (stereo not drawn), the “hERG current change (%, negative = inhibition) at 10uM” value is reported as -45.1%.

For the molecule `COc1ccccc1CN1CCN(C(CC(C)C)c2nnnn2Cc2cccs2)CC1.Cl` (stereo not drawn), the “hERG current change (%, negative = inhibition) at 10uM” value is listed as -57.9%. With `O=C1c2ccsc2SCCN1Cc1ccc(F)cc1` the figure was 12.3%; with `CCOc1cc2c(cc1OCC)C(c1ccccc1OC)OC(=O)C2` (stereo not drawn), 4.38%. For `CC(C)NC(=O)COc1ccc(/C=N/NS(=O)(=O)c2ccccc2)cc1`, the “hERG current change (%, negative = inhibition) at 10uM” value is reported as 9.36%. With `CCOc1cc(N2CCOCC2)c(OCC)cc1NC(=O)COC(=O)c1ccc(Cl)cc1N` the figure was -22.8%; with `Cc1cc2cc(CNC(=O)c3ccc(Br)o3)ccc2n1C`, 8.71%; with `CON(C)c1nc(OCCNC(=O)OCc2ccc(Cl)cc2Cl)nc(N(C)C)n1`, -24.1%.

`CCCCNS(=O)(=O)c1ccc2nc(SCC(=O)Nc3ccccc3Cl)[nH]c2c1`: the “hERG current change (%, negative = inhibition) at 10uM” value stood at 2.49%. With `O=C(Oc1cccc(C(=S)N2CCOCC2)c1)c1ccc([N+](=O)[O-])cc1` the figure was -31.3%; with `Cc1ccc(-c2nc3nc4ccccc4nc3n2Cc2ccco2)cc1`, -18.7%; with `CCCc1oc2c(c(=O)c1CC)C(=O)CC(C)(C)C2`, 8.08%. For the molecule `CCCC[C@@H]1CNC(=S)N1CCCc1cc(OC)c(OC)c(OC)c1`, the “hERG current change (%, negative = inhibition) at 10uM” value worked out at 9.02%. With `COc1ccc(CNC(=O)c2ccc(NC(=O)CC3SC(N4CCCC4)=NC3=O)cc2)cc1` (stereo not drawn) the figure was 3.55%; with `O=C(Nc1cccc(S(=O)(=O)N2CCCCC2)c1)c1ccc(N2CCCC2=O)cc1`, 1.64%; with `CCOc1ccccc1CNCc1ccc(F)cc1.Cl`, -33%. With `O=S(=O)(Nc1ccc2c(c1)OCO2)c1cccc(Br)c1` the figure was -23%.

Turning to `COc1ccc(-c2c(-c3ccc(OCC(=O)NN)cc3O)n[nH]c2C(F)(F)F)cc1`, the “hERG current change (%, negative = inhibition) at 10uM” value is recorded as -5.25%. With `CCOC(=O)CN(C(=O)CSc1nnc(-c2ccc(OC)c(OC)c2)o1)c1ccccc1` the figure was -10.3%. Regarding `O=C1C2CCCN2C(c2ccc(F)c(F)c2)N1c1cccc(Cl)c1` (stereo not drawn), the “hERG current change (%, negative = inhibition) at 10uM” value was -11.1%. Consider `O=C(Nc1ccc(S(=O)(=O)NCC2CCCO2)cc1)c1cnccn1` (stereo not drawn), for which the “hERG current change (%, negative = inhibition) at 10uM” value came to 0.0697%.

`O=C(O)COc1ccccc1/C=C1\SC(=O)N(Cc2ccc(F)cc2)C1=O`: the “hERG current change (%, negative = inhibition) at 10uM” value turned out to be 18.8%. With `O=C(CSc1nnc2ccc(-c3cccnc3)nn12)Nc1ccc(F)cc1` the figure was -63%; with `Cc1ccc(NC(=O)N2CCCCC2)cc1[N+](=O)[O-]`, 13.2%; with `COc1ccc(Cc2nnc(N)s2)cc1OC`, 1.89%. With `Cc1ccc(-c2cn(-c3ccccc3)c(=S)[nH]2)cc1C` the figure was 17.5%; with `CN1CCN(c2nc3c(c(=O)n(C)c(=O)n3C)n2Cc2ccccc2F)CC1`, -4.91%; with `C#CCOc1ccc2c3c(c(=O)oc2c1)CCCC3`, 8.49%. With `COc1ccc(NC(=O)CN2CCN(CC#N)CC2)cc1` the figure was -75.6%. Consider `CN(C(=O)c1ccc(S(=O)(=O)N2CCCC2)cc1)C1CCS(=O)(=O)C1` (stereo not drawn), for which the “hERG current change (%, negative = inhibition) at 10uM” value was 4.75%. On to `CCCCn1c(N)c(N(CCC(C)C)C(=O)C2=NN(c3cc(C)ccc3C)C(=O)CC2)c(=O)[nH]c1=O`, for which the “hERG current change (%, negative = inhibition) at 10uM” value is listed as -1.89%.

Consider `CCOC(=O)CC1C(=O)NCCN1C(=O)Nc1ccccc1` (stereo not drawn), for which the “hERG current change (%, negative = inhibition) at 10uM” value was determined as 6.62%.

For `Cn1c(NC(=O)/C=C/c2ccco2)cc(=O)n(C)c1=O`, the “hERG current change (%, negative = inhibition) at 10uM” value was 4.95%. With `CCOC(=O)CC1C(=O)NCCN1C(=O)c1ccc(F)cc1F` (stereo not drawn) the figure was -18.5%. With `CN(C(=O)c1ccccc1-c1ncc[nH]1)C1CCCN(Cc2ccccc2F)C1` (stereo not drawn) the figure was 4.41%. With `Cc1cc(C)c(C(=O)COC(=O)c2cccc(S(=O)(=O)NCc3ccccc3)c2)cc1C` the figure was -1.73%.

Consider `Nc1nc(Nc2ccccc2F)nc(NC2CCCCC2)c1[N+](=O)[O-]`, for which the “hERG current change (%, negative = inhibition) at 10uM” value is 16.8%. As to `COc1ccc(N2C(=O)CC(Sc3ncccc3C(=O)O)C2=O)cc1` (stereo not drawn), the “hERG current change (%, negative = inhibition) at 10uM” value came out at 10.3%. With `Cc1ccc(N/N=C/c2ccc3c(c2)OCCO3)cc1Cl` the figure was 0.67%. With `Cc1onc(-c2ccccc2)c1C(=O)N/N=C/c1c[nH]c2ccccc12` the figure was -6.69%; with `c1ccc(CCc2nn3c(C4COc5ccccc5O4)nnc3s2)cc1` (stereo not drawn), -1.79%; with `Cc1nc2cc(NS(=O)(=O)c3c(C)c(C)cc(C)c3C)ccc2s1`, 3.47%. In the case of `Cc1ccc(Nc2nc(C(=O)NCC3CCCO3)cs2)cc1` (stereo not drawn), the “hERG current change (%, negative = inhibition) at 10uM” value is listed as -6.3%. With `COc1ccccc1CNC(=O)CN(c1ccc(C)cc1)S(=O)(=O)c1c(C)nn(C)c1C` the figure was -24.1%; with `S=c1nc(C23CC4CC(CC(C4)C2)C3)[nH][nH]1`, 11.8%; with `COC(CC(=O)NNC(=S)Nc1ccccc1)OC`, 7.09%. With `CCc1ccc(C(=O)CSc2ncn[nH]2)cc1` the figure was -18.7%; with `COc1ccc2cc(Br)ccc2c1CC(=O)N(C)C`, 10.7%. With `CCCS(=O)(=O)c1c(S(=O)(=O)CCC)c2c(C(N)=O)cccn2c1C(=O)c1ccc(F)cc1` the figure was 5.3%; with `COc1ccc(S(=O)(=O)Nc2c(F)cccc2F)cc1`, 0.21%. Consider `CC(C)(C)n1cc(C(=O)c2ccccc2OCCCF)cn1`, for which the “hERG current change (%, negative = inhibition) at 10uM” value was determined as 3.75%. With `O=C(COc1cccc(Cl)c1)NCC(c1cccs1)N1CCOCC1` (stereo not drawn) the figure was -9.84%; with `CC1CCCN(S(=O)(=O)c2ccc(-c3ccc(=O)[nH]n3)o2)C1` (stereo not drawn), 11.2%; with `CCOc1cc(NC(=S)Nc2cccc(OC)c2)c(OCC)cc1NC(=O)C(C)C`, 1.89%.

As for `COc1ccccc1CNCc1cc(Br)ccc1OC.O=C(O)C(=O)O`, the “hERG current change (%, negative = inhibition) at 10uM” value was -37.1%.

In the case of `Cc1ccc(CNC(=O)CN2C(=O)NC3(CC(C)CC(C)(C)C3)C2=O)cc1` (stereo not drawn), the “hERG current change (%, negative = inhibition) at 10uM” value was -3.14%.
